Hit rate of the full screen: of about 310,000 compounds, about 14,000 (4.5%) showed an effect of 50% or more. Effects have a minus sign here. Some of the results follow.
Each compound was assayed against human ether-à-go-go-related gene (hERG) potassium channel (human, UniProt Q12809) (assay: primary screen, population patch clamp on CHO cells stably expressing hERG).
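Also: peak tail current of the secondary pulse compared with the same well before compound.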

human ether-à-go-go-related gene (hERG) potassium channel, sequence (Q12809 whole entry, looked up): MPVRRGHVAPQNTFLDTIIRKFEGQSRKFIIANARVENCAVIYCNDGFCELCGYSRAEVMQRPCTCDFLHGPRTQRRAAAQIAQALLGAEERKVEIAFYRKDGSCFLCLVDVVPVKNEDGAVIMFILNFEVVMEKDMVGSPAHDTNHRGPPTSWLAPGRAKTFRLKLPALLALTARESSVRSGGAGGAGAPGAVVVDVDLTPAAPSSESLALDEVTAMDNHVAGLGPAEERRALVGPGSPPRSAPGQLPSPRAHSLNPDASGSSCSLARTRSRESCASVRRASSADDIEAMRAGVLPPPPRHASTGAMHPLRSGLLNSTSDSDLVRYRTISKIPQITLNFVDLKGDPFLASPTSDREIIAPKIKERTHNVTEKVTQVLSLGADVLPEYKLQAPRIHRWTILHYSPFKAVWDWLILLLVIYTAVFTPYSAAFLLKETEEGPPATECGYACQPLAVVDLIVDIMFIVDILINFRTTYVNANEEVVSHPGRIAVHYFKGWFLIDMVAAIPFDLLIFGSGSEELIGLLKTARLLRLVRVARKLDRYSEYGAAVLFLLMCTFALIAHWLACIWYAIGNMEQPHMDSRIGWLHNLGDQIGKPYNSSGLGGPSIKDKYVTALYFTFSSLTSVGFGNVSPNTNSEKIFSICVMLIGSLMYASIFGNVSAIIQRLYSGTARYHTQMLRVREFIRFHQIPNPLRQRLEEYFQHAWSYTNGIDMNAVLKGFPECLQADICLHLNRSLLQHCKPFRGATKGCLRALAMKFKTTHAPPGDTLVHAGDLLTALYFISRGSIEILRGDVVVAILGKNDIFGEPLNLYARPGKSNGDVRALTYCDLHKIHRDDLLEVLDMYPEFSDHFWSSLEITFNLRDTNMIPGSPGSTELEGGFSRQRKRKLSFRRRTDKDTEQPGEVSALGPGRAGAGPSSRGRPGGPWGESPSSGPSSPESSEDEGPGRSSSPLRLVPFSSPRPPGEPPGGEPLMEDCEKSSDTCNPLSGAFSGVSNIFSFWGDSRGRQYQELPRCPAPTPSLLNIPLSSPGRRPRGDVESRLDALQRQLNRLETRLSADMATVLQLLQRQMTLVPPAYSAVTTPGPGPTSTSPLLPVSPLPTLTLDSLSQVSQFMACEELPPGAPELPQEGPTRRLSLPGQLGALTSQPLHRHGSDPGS

| Structure (SMILES) | hERG current change (%, negative = inhibition) at 10uM [%] |
| --- | --- |
| Cc1ccc(S(=O)(=O)Oc2cccc(/C=N/Nc3ccc(C(=O)O)cc3)c2)cc1 | 5.85 |
| CC(=O)c1ccc(NC(=O)Cn2nc(C)c([N+](=O)[O-])c2C)cc1 | 1.05 |
| CCOP(=O)(c1c(F)c(F)c(F)c(F)c1F)C1(O)CCCCC1 (stereo not drawn) | 2.73 |
| Cl.c1ccc(-c2nc(NCC3CCCO3)c3oc4ccccc4c3n2)cc1 (stereo not drawn) | -9.67 |
| Cc1ccc(NC(=O)C2CC(=O)N(CCc3ccccc3)C2)c(C)c1 (stereo not drawn) | 9.44 |
| CC(C)(C)n1nnnc1C(c1cccs1)N(Cc1ccc(Cl)cc1)CC1CCCO1 (stereo not drawn) | -9.8 |
| COCC(C)n1c(SCC(=O)NC(=O)NC2CCCC2)nc2ccccc2c1=O (stereo not drawn) | -30.7 |
| O=C(NCC1OCCc2ccccc21)c1ccc(NC(=O)c2ccc(Cl)cc2Cl)cc1 (stereo not drawn) | 6.4 |
| COc1nc(NCCN2CCOCC2)nc(Nc2ccccc2)n1 | -50.5 |
| CNC(C)C#Cc1ccc2oc3cc(C)c(C)cc3c(=O)c2c1 (stereo not drawn) | 9.45 |
| Clc1cccc(-c2nnc(-c3ccccc3)o2)c1 | 1.17 |
| Cc1ccc(C(=O)N2CCC3(CC2)Oc2ccc(Cl)cc2C(=O)C32CC(c3cccnc3)=NO2)s1 (stereo not drawn) | -9.25 |
| CCOC(=O)C1CCN(c2ncnc3c2cnn3-c2ccccc2)CC1 | -35.7 |
| O=C(NCc1ccco1)C1CCN(S(=O)(=O)N2CCOCC2)CC1 | -13.1 |
| O=[N+]([O-])c1cccc(S(=O)(=O)NCCOc2cccc3cccnc23)c1 | -1.85 |
| Cc1noc(C)c1COC(=O)[C@@H](NC(=O)c1ccccc1Cl)C(C)C | 5.09 |
| CCc1ccc(OC(C)C(=O)Nc2ccc(S(=O)(=O)Nc3cc(C)on3)cc2)cc1 (stereo not drawn) | 9.94 |
| Cc1ccc2c(CC(=O)NCC(C)(C)N3CCOCC3)coc2c1 | 5.75 |
| CC(C)C(=O)NCCCc1ccccc1 | 10.3 |
| Cc1ccc(C(=O)N/C(=C/c2ccc(-c3cccc([N+](=O)[O-])c3)o2)C(=O)NC(C)(C)C)cc1 | -21.9 |
| CCOc1cnn(Cc2ccccc2)c(=O)c1SCc1ccccc1 | -30.1 |
| Cc1ccc(-c2nnn(CC(=O)N(c3ccccc3)C(C(=O)NC3CCCC3)c3ccncc3)n2)o1 (stereo not drawn) | -10.6 |

| Structure (SMILES) | hERG current change (%, negative = inhibition) at 10uM [%] |
| --- | --- |
| O=C(c1ccc(-c2cc(Cl)ccc2Cl)o1)N1CCOCC1 | -41.8 |
| O=C(NC(Cc1c[nH]c2ccccc12)C(=O)O)/C(=C/c1ccc(F)cc1)NC(=O)c1ccccc1 (stereo not drawn) | 2.17 |
| N#CC1(c2ccccc2)CCN(S(=O)(=O)c2ccc(OC(F)(F)F)cc2)CC1 | 9.34 |
| COc1ccc(S(=O)(=O)N2CCC(C(=O)N[C@H](C(=O)N3CCCC3)C(C)C)CC2)cc1 | 10.8 |
| COc1cc(C(C(=O)Nc2c(C)cccc2C)N(C)C(=O)c2ccc(-n3cnnn3)cc2)ccc1O (stereo not drawn) | -67.7 |
| Nc1nc(Cl)nc2c1ncn2C1CC(O)C(CO)O1 (stereo not drawn) | 3.7 |
| CC1CCN(C(=O)C2CCC(CNS(=O)(=O)c3cccc4cccnc34)CC2)CC1 (stereo not drawn) | 2.51 |
| O=C(NCCN1CCOCC1)c1ccc(Cl)c(S(=O)(=O)N2CCCC2)c1 | -0.109 |
| Cc1c(Cl)cccc1NC(=O)c1cccc(OC(F)F)c1 | -31.1 |
| Nc1nc(SCC(=O)NCCc2ccccc2)[nH]c(=O)c1-c1ccccc1 | 15.9 |
| Cc1ccc(Oc2ncnc(N)c2[N+](=O)[O-])cc1C | 31.8 |
| CCC(C)N(C(=O)CSc1ncnc2c1cnn2-c1ccccc1)C1CCS(=O)(=O)C1 (stereo not drawn) | -9.61 |
| COc1ccc(C(=O)Nc2nc3ccc(S(C)(=O)=O)cc3s2)cc1 | 11.1 |
| CC1(C)CC(CC(=O)NNc2nc(-c3ccccc3)cs2)C(=O)O1 (stereo not drawn) | -2.28 |
| CCCCCC1CCC(c2n[nH]c(=S)n2C)CC1 (stereo not drawn) | 10.9 |
| COc1ccc(CSc2nc(C)cc(=O)[nH]2)cc1Br | 13.3 |
| COc1ccc(C(=O)OCC(=O)Nc2ccc([N+](=O)[O-])cc2OC)c(O)c1 | -15.3 |
| O=C1c2ccccc2C(=O)N1CC(=O)N1c2ccccc2Sc2ccc(C(F)(F)F)cc21 | -1.52 |
| CCN(C1CCCCC1)S(=O)(=O)c1ccc(S(=O)(=O)N(CC(=O)Nc2ccccc2)C2CC2)cc1 | -1.91 |
| Cc1c(C)n(Cc2ccc(Cl)cc2)c2ccc(C(=O)NCCN3CCOCC3)cc12 | 3.57 |
| Nc1ccc(-n2nnnc2CN2CCOCC2)cc1 | 3.15 |
| O=C1C2CCCN2C(c2ccc(F)cc2)N1c1cccc(Cl)c1 (stereo not drawn) | -6.29 |

| Structure (SMILES) | hERG current change (%, negative = inhibition) at 10uM [%] |
| --- | --- |
| CCCNC(=O)Nc1ccc(NC(C)=O)cc1 | -13.4 |
| O=C(O)CCNC(=O)/C(=C\C=C\c1ccccc1)NC(=O)c1ccccc1 | 12.6 |
| CCCC(=O)Nc1sc(Cc2ccccc2)c(C)c1C(N)=O | -19.7 |
| O=C(NCCCN1CCOCC1)c1ccc(Cl)c([N+](=O)[O-])c1 | -4.74 |
| Cc1ccc(-c2nc(N/N=C/c3ccncc3)c3ccccc3n2)cc1 | 3.06 |
| CCc1ccc(OCCCCCn2ccnc2)cc1 | -4.41 |
| OCC[C@@H]1C[C@@H](O)[C@H](O)[C@]2(OCCCc3ccccc32)O1 | 16.1 |
| CCCOC(=O)CC1C(=O)NCCN1Cc1cc(OC)cc(OC)c1 (stereo not drawn) | -26.1 |
| Nn1c(SCc2ccc(Br)cc2)nnc1-c1cccnc1 | 59.1 |
| CN(C)C=NC(=O)c1ccc([N+](=O)[O-])c(CS(=O)(=O)c2ccc(Cl)cc2)c1 | -49.6 |
| COc1ccc(C(CNC(=O)c2cccc(NS(=O)(=O)c3ccccc3)c2)N(C)C)cc1 (stereo not drawn) | -46.4 |
| Cc1ccnc(NC(c2ccsc2)c2ccc3ccc(C)nc3c2O)c1 (stereo not drawn) | -4.03 |
| CCOC(=O)c1c(NC(=O)CC2SC(N)=NC2=O)sc2c1CCC(C)C2 (stereo not drawn) | 8.51 |
| Cn1c(=O)cc(N2CCOCC2)[nH]c1=O | -23.4 |
| Cc1c(CC(=O)NCCC(C)C)c(=O)oc2cc3c(cc12)CCC(C)(C)O3 | 20.9 |
| CCC(=O)N1CCN(c2ccc(Cl)cc2NC(=O)c2ccc([N+](=O)[O-])o2)CC1 | -21 |
| COc1ccccc1N1CCN(C(=O)C2CCN(S(=O)(=O)c3ccc4c(c3)CC(C)N4C(=O)C3CC3)CC2)CC1 (stereo not drawn) | -1.74 |
| Cc1cc2nc(SCCOC(=O)Nc3ccccc3)nc(C)c2cc1C | -2.78 |
| CCN(C(=O)COc1ccccc1C(=O)NCc1ccccc1)C1CCS(=O)(=O)C1 (stereo not drawn) | -22.1 |
| COC(=O)N/N=C/c1cc(OC)c(O)c([N+](=O)[O-])c1 | 4.64 |
| CCCOc1ccc(C(=O)Nc2ccc(Cl)cn2)cc1 | 5.35 |
| CCC[C@@H](OS(N)(=O)=O)[C@@H](Cc1ccccc1)C(=O)OCC | -9 |

| Structure (SMILES) | hERG current change (%, negative = inhibition) at 10uM [%] |
| --- | --- |
| CCOC(=O)C(Cc1ccccc1)C(=O)NCc1cccnc1 (stereo not drawn) | 1.18 |
| COc1ccc(/C=C/C(=O)N2CCN(C)CC2)cc1S(=O)(=O)N1CCCCC1 | 7.36 |
| COc1ccc(-c2nc3nc(SC)nn3cc2C)cc1F | -13.4 |
| COc1ccccc1N(CC(=O)Nc1cc(C)on1)S(=O)(=O)c1cccc(C(F)(F)F)c1 | -5.55 |
| O=C(N/N=C/C=C/c1ccccc1)c1n[nH]c2c1CCC2 | 9.22 |
| O=C(NC1CCN(C(=O)c2cccs2)CC1)c1ccccc1 | -19.3 |
| CCOC(=O)CSC1=N/C(=C\c2cccnc2)C(=O)N1c1ccc(OC)cc1 | -7.14 |
| CC1CC(C)CN(C(=O)C(C)N(C)CC(=O)Nc2ccccc2Cl)C1 (stereo not drawn) | 9.15 |
| CCC(C)c1ccc(S(=O)(=O)N2CCN(C(=O)COc3ccc4c(C)cc(=O)oc4c3)CC2)cc1 (stereo not drawn) | -6.43 |
| CCOC(=O)c1c(C)nc2c(c(SC)nn2-c2ccccc2)c1N | 17.9 |
| Clc1ccc(-n2nnc(-c3ncc[nH]3)n2)cc1Cl | -0.372 |
| OC1(c2ccccc2F)CCN(Cc2nnnn2CCc2ccccc2)CC1 | 30.9 |
| N#Cc1cc2c(nc1SCc1cccnc1)CCC2 | -10.7 |
| COc1ccc(S(=O)(=O)NC(C)C(=O)Nc2ccccc2F)cc1 (stereo not drawn) | -9.5 |
| COc1ccc(Cl)cc1NS(=O)(=O)c1cccc2cccnc12 | 32.2 |
| O=C(c1noc2c1CCc1ccccc1-2)N1CCOCC1 | 3.24 |
| Cc1ccccc1C(=O)NC(=S)N(C)C1CCCCC1 | 21.2 |
| O=[N+]([O-])c1cc(/C=N/O)ccc1SCc1ccccc1 | 11.6 |
| Nc1nc(COC(=O)CCC(=O)c2ccc(Cl)cc2)nc(Nc2ccccc2)n1 | 6.39 |
| CCC(C)C1NC(=S)N(C2CCCCC2)C1=O (stereo not drawn) | 6.18 |
| CCC(=O)c1ccc(OCC(O)Cn2nc(C)cc2C)cc1 (stereo not drawn) | -7.44 |

— publication PMC4336329 (PLoS ONE, 2015)
